# According to paper PMC4336329 (PLoS ONE, 2015):
# Among all 310,000 compounds or so, about 2,200 (0.71%) showed an effect of 50% or more. The effect is printed as a negative number. The list shows a part of the results.
# Biological target: human ether-à-go-go-related gene (hERG) potassium channel (human, UniProt Q12809)
# Assay: primary screen, population patch clamp on CHO cells stably expressing hERG
# Chain of human ether-à-go-go-related gene (hERG) potassium channel (Q12809 whole entry, looked up): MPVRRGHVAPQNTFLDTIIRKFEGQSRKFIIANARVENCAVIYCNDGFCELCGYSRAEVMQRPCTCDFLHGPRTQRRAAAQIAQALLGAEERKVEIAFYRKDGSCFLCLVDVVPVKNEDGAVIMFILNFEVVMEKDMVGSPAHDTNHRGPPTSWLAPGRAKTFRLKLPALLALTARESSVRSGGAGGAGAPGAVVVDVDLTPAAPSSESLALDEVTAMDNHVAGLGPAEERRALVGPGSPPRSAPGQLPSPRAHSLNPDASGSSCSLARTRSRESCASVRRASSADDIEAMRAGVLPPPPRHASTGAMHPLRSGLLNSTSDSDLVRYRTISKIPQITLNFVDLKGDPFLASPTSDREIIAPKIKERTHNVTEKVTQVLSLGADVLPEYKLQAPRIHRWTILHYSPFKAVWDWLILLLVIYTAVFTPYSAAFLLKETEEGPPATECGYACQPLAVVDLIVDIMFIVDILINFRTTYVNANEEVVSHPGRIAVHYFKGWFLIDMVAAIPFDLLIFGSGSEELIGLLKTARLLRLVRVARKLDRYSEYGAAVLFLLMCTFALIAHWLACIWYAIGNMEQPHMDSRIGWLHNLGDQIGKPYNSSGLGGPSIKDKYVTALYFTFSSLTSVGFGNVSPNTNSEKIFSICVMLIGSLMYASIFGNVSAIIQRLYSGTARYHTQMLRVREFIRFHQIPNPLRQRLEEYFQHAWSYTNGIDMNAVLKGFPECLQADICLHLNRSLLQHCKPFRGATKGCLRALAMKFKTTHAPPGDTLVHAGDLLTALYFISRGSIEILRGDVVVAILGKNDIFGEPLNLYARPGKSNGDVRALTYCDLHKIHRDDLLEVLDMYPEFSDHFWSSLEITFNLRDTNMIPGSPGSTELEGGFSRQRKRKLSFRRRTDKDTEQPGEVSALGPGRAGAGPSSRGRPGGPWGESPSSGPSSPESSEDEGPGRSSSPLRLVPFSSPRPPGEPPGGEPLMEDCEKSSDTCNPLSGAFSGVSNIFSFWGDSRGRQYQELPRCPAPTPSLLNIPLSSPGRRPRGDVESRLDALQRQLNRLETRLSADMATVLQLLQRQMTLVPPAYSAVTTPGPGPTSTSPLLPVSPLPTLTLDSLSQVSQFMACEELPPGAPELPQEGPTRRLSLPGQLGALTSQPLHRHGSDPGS
row,Compound,"hERG current change (%, negative = inhibition) at 1uM [%]"
1,NC(=O)Cc1ccc(Nc2nnc(-c3ccccc3)c3ccccc23)cc1,7.76
2,O=C(c1cccnc1)N1CCN(S(=O)(=O)c2cccs2)CC1,-29.5
3,O=C(/C=C/c1ccncc1)c1ccc(NC(=O)c2ccccc2F)cc1,10.7
4,O=C(NCc1cccnc1)c1cn(-c2ccccc2)nc1-c1cccs1,3.42
5,N#Cc1ccc(OCC(O)CS(=O)(=O)c2ccc(F)cc2)cc1 (stereo not drawn),-3.69
6,Cc1noc(C)c1C(=O)Nc1ccc(N(C)C)cc1,17.6
7,COc1ccc(C(C)(C)C)cc1NC(=O)Nc1ccc2c(c1)OCO2,22.5
8,O=C(NCCCN=C1NS(=O)(=O)c2ccccc21)c1ccco1,1.64
9,COc1ccc(/C=N/N2CCN(c3ccc(Cl)cc3)CC2)cc1O,11.8
10,Cc1cc([N+](=O)[O-])nn1Cc1noc(C(=O)NCc2ccc3c(c2)OCO3)n1,12
11,CC(C)C[C@H](N)c1cn([C@@H](Cc2cc3ccccc3[nH]2)C(=O)N2CCNCC2)nn1.Cl,12.8
12,COC(=O)C1CCN(C(=O)CC(NC(=O)C(F)(F)F)c2cccs2)CC1 (stereo not drawn),4.19
13,COc1cc(COC(=O)Oc2ccc(CNC(C)=O)cc2OC)c([N+](=O)[O-])cc1OC,9.74
14,Cc1oc2cc(O)cc(O)c2c(=O)c1-c1ccc2c(c1)OCCCO2,13.7
15,[O-][n+]1c2ccccc2[n+]([O-])c2cc(O)ccc21,7.15
16,NS(=O)(=O)c1ccc(CCNC(=O)C2(S(=O)(=O)c3ccc(Cl)cc3)CC2)cc1,12.9
17,Cc1nc(NS(=O)(=O)c2ccccc2)sc1C(=O)NN,11.8
18,COc1cccc(C(NC(C)=O)c2ccc3cccnc3c2O)c1 (stereo not drawn),15.7
19,C/C(=N/NC(=O)C1CC1(c1ccccc1)c1ccccc1)c1ccco1 (stereo not drawn),10.7
20,Cc1[nH]n(-c2ccccc2)c(=O)c1/C=N/c1nn[nH]n1,9.66
21,Cc1csc(=O)n1CCC(=O)OCC(=O)c1ccc(Br)cc1,6.19
22,COc1ccc(C(C)NC(=O)CCc2ccccc2)cc1 (stereo not drawn),11.6
23,CC(=O)c1c(C)[nH]c(C(=O)CN2CCN(S(=O)(=O)c3ccccc3)CC2)c1C,13.1

row,Compound,"hERG current change (%, negative = inhibition) at 1uM [%]"
1,Cc1ccc(C(=O)N(CN2CCCC2=O)c2ccccc2)cc1C,10.7
2,CCC(=O)Nc1nnc(-c2ccc(Cl)s2)o1,15.9
3,Cc1cccc(NC(=O)CNC(=O)c2ccc(-n3cncn3)c([N+](=O)[O-])c2)c1C,-9.45
4,COCCCNC(=O)CCc1nc(-c2ccccc2)no1,8.55
5,Cc1ccc(Cn2c(CCNc3nc(-c4ccc(C)cc4)cs3)nc3cc(C(=O)NCCCO)ccc32)cc1,9.5
6,O=C(NCc1ccccc1C(F)(F)F)C12CN(Cc3ccccc3)CC1C(c1ccc([N+](=O)[O-])cc1)=NO2 (stereo not drawn),5.46
7,CCCCCc1nc2ccccc2c(=O)n1N,13.4
8,NC(=O)C1CCN(C(=O)Cc2ccc([N+](=O)[O-])cc2)CC1,4.39
9,O=C1NC(=O)N(c2ccccc2F)C(=O)/C1=C/c1cn(CC(=O)N2CCOCC2)c2ccccc12,8.85
10,Cc1ccccc1NS(=O)(=O)c1ccc(C(=O)N2CCCCCCC2)cc1,-3.77
11,S=c1nc(-c2sccc2OCc2ccc(Cl)cc2Cl)[nH][nH]1,15.3
12,COc1ccc2cc(CCC(C)=O)ccc2c1,15.3
13,Cc1ccc(N)c(C(=O)c2ccccc2)c1,-8.11
14,CC(C)CSc1ncc(-c2cccc(C(F)(F)F)c2)cn1,-6.24
15,COc1ccc2cc(C(=O)Nc3ccc(Cl)cc3)sc(=O)c2c1OC,12.7
16,Cc1nc2c(C)cccc2cc1C(=O)N/N=C/c1ccc(C(=O)O)cc1,9.91
17,N#Cc1c(-c2ccccc2)[nH]c(=S)[nH]c1=O,5.12
18,O=C(N/N=C/c1ccc([N+](=O)[O-])o1)c1cc(-c2cccc(Br)c2)nc2ccccc12,4.42
19,CC(=O)n1nc(-c2cccnc2)nc1NCc1cccs1,11
20,CC(C)C(OC(=O)CCC(=O)Nc1nccs1)C(=O)NC1CCCCC1 (stereo not drawn),17.2
21,COc1ccc(S(=O)(=O)N2CCCCC2)cc1NC(=O)CN(C)C1CCCCC1,4.72
22,COc1ccccc1/C=C1\SC(N2CCC(C)CC2)=NC1=O,13.3
23,Cc1c(NC2=NC3(CCCCC3)Cc3ccccc32)c(=O)n(C)n1-c1ccccc1,0.156

row,Compound,"hERG current change (%, negative = inhibition) at 1uM [%]"
1,COc1cccc(C(=O)Nc2cc(NC(=O)c3cccs3)ccc2C)c1OC,1.91
2,CCC(CC)NC(=O)c1ccc2nc[nH]c2c1,11
3,CC(C)Sc1n[nH]c(=O)n1-c1ccccc1,9
4,O=C(O)CC1(c2ccccc2)C(=O)c2ccccc2C1=O,13.1
5,CCCCCC1CCC(C(=O)NCCN2CCOCC2)CC1 (stereo not drawn),7.07
6,CCCCCn1c(CN2CCN(CCO)CC2)nc2c1c(=O)n(C)c(=O)n2C,7.46
7,COc1ccc(S(=O)(=O)N2Cc3ccccc3CC2C(=O)Nc2nccs2)cc1 (stereo not drawn),-7.54
8,CCOC(=O)N1CCN(C(=O)CS(=O)Cc2nc(-c3ccc(C)cc3)oc2C)CC1 (stereo not drawn),11.8
9,COc1ccc2nc(SCC(=O)NC3(C#N)CCCCC3)[nH]c2c1,12.9
10,CCOc1ccccc1NC(=O)C1CCN(C(=O)C2CC(=O)N(c3ccc(C)cc3)C2)CC1 (stereo not drawn),10.3
11,O=C1CN(C(=O)c2ccccc2F)C(c2ccccc2)c2cc(Cl)ccc2N1 (stereo not drawn),-9.44
12,CC1CCN(c2nncc3ccccc23)CC1,7.52
13,CN(C)c1ccc([N+](=O)[O-])cc1C(=O)NCC(c1ccco1)N(C)C (stereo not drawn),14.8
14,Cc1ccc(C(=O)N/N=C/c2cccc3ccccc23)cn1,12.8
15,Cl.O=C(CCN1CCC(c2ccccc2)C1)c1cccs1 (stereo not drawn),-13.5
16,CC(/C=C/c1ccc2c(c1)OCO2)=N/NC(=O)c1cccnc1,1.59
17,COc1ccc(CNc2cc(C)ccn2)cc1,9.04
18,Cc1ccc(CNC(=O)[C@H](C)N2C(=O)N3CCc4c([nH]c5ccccc45)[C@@]3(C)C2=O)cc1,11.3
19,O=C(CSc1ccccc1C(=O)O)NCc1ccco1,10.5
20,O=C(Nc1ccccc1C(F)(F)F)N1CCN(c2ccccn2)CC1,7.11
21,O=C(Cc1ccccc1)Nc1cc(Cl)ccc1Sc1ccccc1,10.8
22,Cc1nc2ccccc2c(=O)n1NC(=O)c1ccccc1[N+](=O)[O-],8
23,COc1ccc(NC2c3ccccc3C(=O)N2c2ccccn2)cc1Cl (stereo not drawn),0.441

row,Compound,"hERG current change (%, negative = inhibition) at 1uM [%]"
1,CCS(=O)(=O)Nc1ccc(C2=NN(C(=O)c3ccco3)C(c3ccco3)C2)cc1 (stereo not drawn),-3.36
2,COc1ccc2nc(N3CCCCC3)c(C#N)cc2c1,22.6
3,Cc1ccccc1-c1nc(C#N)c(N2CCC(C)CC2)o1,14.8
4,O=C(O)c1ccc2ncsc2c1,11.5
5,Cn1cc(S(=O)(=O)N2CCN(C(=O)c3ccco3)CC2)c(=O)n(C)c1=O,2.62
6,COc1cccc(-n2c(SCC(=O)NCc3cccs3)nc3ccccc3c2=O)c1,11
7,CCC12CN3CC(CC)(CN(C1)C31C(=O)N(C)c3ccc(C)cc31)C2=O (stereo not drawn),16
8,O=C(COc1ccc(Cl)cc1Cl)Nc1ccc(CN2CCCCC2)cc1,-7.07
9,NC(=O)COc1ccc(NC(=O)CC23CC4CC(CC(C4)C2)C3)cc1,17.4
10,CCn1cc(CN2CCC(n3nccc3NC(=O)Cc3ccccc3)CC2)c(C)n1,12.4
11,Cc1csc(NC(CO)c2nc3ccccc3n2CCOCCO)n1 (stereo not drawn),12.5
12,Cn1cc(Br)c(C(=O)NC2C3CC4CC(C3)CC2C4)n1 (stereo not drawn),-6.31
13,O=C(NN1C(=O)c2ccccc2NC1c1ccccn1)c1ccc(Br)cc1 (stereo not drawn),-3.16
14,O=C(NCCCCCCNC(=O)c1ccccc1O)c1ccccc1O,15.1
15,CC(=O)N(Cc1c(C#N)c2ccccc2n1C)c1ccccc1,5.03
16,COc1ccccc1C(=O)CC(=O)C(=O)Nc1cccc([N+](=O)[O-])c1C,4.51
17,CSc1cccc(NC(=O)CCc2ccccc2)c1,14.1
18,Cl.Clc1cccc(CN2C3=NCCCN3c3ccccc32)c1,-46.2
19,Cc1ccc(C)c(/C=N/NC(=S)NC(C)C)c1,20.6
20,CC(C)(C)C(=O)N1c2ccccc2CCc2ccccc21,14.1
21,CCOc1nc(NC(=O)NC(=O)c2ccccc2)nc(-c2ccccc2)n1,7.69
